# Laboratory results reported in patent US20240277806A1 (published 2024).
# T1: GDF11 (UniProt O95390 299-407)
# T1 chain: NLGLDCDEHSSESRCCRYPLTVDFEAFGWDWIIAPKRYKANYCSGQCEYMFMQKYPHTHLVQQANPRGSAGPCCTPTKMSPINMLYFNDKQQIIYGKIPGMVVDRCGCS
# T2: activin A (UniProt P08476 311-426)
# T2 chain: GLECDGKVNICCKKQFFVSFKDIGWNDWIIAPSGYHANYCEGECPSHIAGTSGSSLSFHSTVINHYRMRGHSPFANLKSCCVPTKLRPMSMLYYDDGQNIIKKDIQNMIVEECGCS
# B1: ActRIIA-hFc (Fc fusion)
# chain: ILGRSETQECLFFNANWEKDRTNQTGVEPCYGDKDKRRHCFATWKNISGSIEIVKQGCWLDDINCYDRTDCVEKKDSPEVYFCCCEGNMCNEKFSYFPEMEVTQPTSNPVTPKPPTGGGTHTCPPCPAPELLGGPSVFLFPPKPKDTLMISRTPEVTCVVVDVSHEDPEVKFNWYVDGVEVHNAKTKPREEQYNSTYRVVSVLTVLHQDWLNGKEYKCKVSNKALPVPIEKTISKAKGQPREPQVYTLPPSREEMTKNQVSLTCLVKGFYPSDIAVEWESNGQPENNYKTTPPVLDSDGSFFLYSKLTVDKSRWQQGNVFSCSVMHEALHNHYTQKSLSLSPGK
# What was measured:
# GDF11 = target: T1, GDF11; test: Biacore
# activin A = target: T2, activin A; test: Biacore
binder,measurement,setting,value
B1,Kd,GDF11,9.96 nM
same,Kd,activin A,0.005 nM
